The other results are listed elsewhere or left out.

This assay concerns T1, C. trachomatis L2/434/Bu expressing GFP (CTL2-GFP).
T1 construct: L2/434/Bu GFP intracellular growth in HeLa cells
More on the design: species or system HeLa; C. trachomatis total inclusion area by high-content imaging, normalised to DMSO. The conditions noted are these: total inclusion area; 28.5 h, 10 µM; inhibitor. Summed up:
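Imaging read-out: GFP inclusions and Hoechst nuclei captured by high-content imaging after fixation. Inclusion area/number = chlamydial growth; nuclei count = host cell viability. MIC calculated per earlier method.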
As for `O=C(O)CN(c1cccc([N+](=O)[O-])c1)S(=O)(=O)c1ccccc1` [CBK262684], the “% of control remaining” value came out at 102.108.

For `O=C1NC2(CCN(C(=O)C(F)(F)F)CC2)Oc2ccccc21` [CBK283906], the “% of control remaining” value came to 93.8471. Then `Cc1cnc(C(=O)OCc2cc(=O)n3ccsc3n2)cn1` [CBK296978], with 111.089; and `CCOC(=O)COc1ccc2c(=O)c(Oc3ccc([N+](=O)[O-])cc3)c(C)oc2c1C` [CBK266092], with 95.4996.

Consider `CC(=O)N1CCC(O)(Cn2c(C3CC3)cc3cccnc32)CC1` [CBK283082], for which the “% of control remaining” value is reported as 95.0223. Then `O=C(CCn1cnc2ccccc2c1=O)Nc1ccccc1C(F)(F)F` [CBK270056], with 92.7512.

`CCc1[nH]ncc1C(=O)N1CCN(c2nccc(OC)n2)CC1` [CBK304915]: the “% of control remaining” value was found to be 52.8551.

Regarding `CCOC(=O)c1cnc2ccc(OC)cc2c1Nc1ccc(OC)cc1` [CBK095337], the “% of control remaining” value is given as 69.1584.

With `Cc1nnc(SCC(=O)NCc2c(C)c(Cl)cc(C(C)C)c2O)s1` [CBK269662], the “% of control remaining” value is 106.134. Then `COc1cc2c(cc1C(C)c1ccc3c(c1)OCO3)OCO2` (stereo not drawn) [CBK200107], with 63.9998; and `CC(=O)N1CCc2c([nH]c3cc(F)ccc23)C12CCN(CCC#N)CC2` [CBK039692], with 83.2505; and `COC(=O)COc1nccnc1-c1ccc(C)c(C)c1` [CBK106871], with 74.0712.

Regarding `CCOc1ccc(CNc2ccc(CNc3ncn[nH]3)cc2)cc1` [CBK267617], the “% of control remaining” value was 96.5683. Then `Cc1cc(=O)[nH]c(-n2nc(C)cc2NC(=O)c2ccccc2C)n1` [CBK287654], with 78.905; and `CC12CN3CCN(CC(C3)C1(O)CN1CCOCC1)C2` (stereo not drawn) [CBK263033], with 92.0226.

As to `C(=N\Nc1nc2ccccc2[nH]1)/c1cccs1` [CBK025417], the “% of control remaining” value was 33.2949.

Turning to `CCCC(=O)Nc1ccc(OCc2cnccn2)c(C(C)=O)c1` [CBK304766], the “% of control remaining” value was determined as 77.9136. Then `Cc1cc(-c2cnc(N)nc2)cc(C2CCCN(S(=O)(=O)c3ccc(F)c(C)c3)C2)n1` (stereo not drawn) [CBK285934], with 104.42; and `O=C(NCc1cccnc1)N1CCCC(CO)C1` (stereo not drawn) [CBK156037], with 99.2058; and `COc1ccc(CN(C)c2c(C)nc3c(OCC(=O)N4CCOCC4)cccn23)cc1` [CBK147469], with 102.715.

Turning to `O=C(CCn1cnnn1)Nc1cc(C(F)(F)F)ccc1Cl` [CBK270127], the “% of control remaining” value is recorded as 100.171.

Take `NC(=O)CC[C@H](N)C(=O)N1CC[C@@H]2NC(=O)[C@H](Cc3ccccc3)NC(=O)C3(C/C=C/C[C@@H]2C1)CCOCC3` [CBK292199]: the “% of control remaining” value stood at 116.53.

For `CN(CCCNC(=O)c1ncoc1-c1cccs1)c1ccccc1` [CBK282248], the “% of control remaining” value is reported as 88.1666. On to `O=C(c1ccc(F)cc1)C1CCN(Cc2ccc(Cl)c(Cl)c2)CC1` [CBK149114], for which the “% of control remaining” value is 107.168. Then `COc1cc2c(cc1OC)C1c3ccccc3NC(c3ccc(F)cc3)N1CC2` (stereo not drawn) [CBK286191], with 95.9095.

As for `Cc1c(OCc2cnn(-c3ccccc3)c2)ccc(-c2n[nH]c(C(F)(F)F)c2-c2ccccc2)c1O` [CBK264962], the “% of control remaining” value stood at 47.3803. Then `Nc1nc(N)nc(CSc2ncc(-c3ccccc3)n2-c2ccccc2)n1` [CBK297103], with 116.224; and `COc1ccc(C)cc1NC(=O)CCN1CCN(CCO)CC1` [CBK264199], with 100.737; and `O=C(NCCCc1ccc(Cl)cc1)c1cc2c([nH]c1=O)CCC2` [CBK281560], with 107.947. On to `COc1ccccc1Cc1cccc(C2CCN(C(=O)c3ccc(F)cc3)CC2)n1` [CBK286237], for which the “% of control remaining” value was found to be 89.7873.

In the case of `Cn1nc(C(=O)Nc2ccccc2Oc2ccc(F)cc2)ccc1=O` [CBK281430], the “% of control remaining” value is listed as 106.063.

`COC(=O)c1c(C)n[nH]c1COc1ccccc1` [CBK057823]: the “% of control remaining” value worked out at 73.7398. Then `Cc1noc(C)c1C(=O)Nc1ccc(N2CCOCC2)c2nonc12` [CBK268125], with 63.8658; and `Cc1ccccc1-c1cncc(C2CCN(C(=O)Cc3c[nH]c4ccccc34)CC2)n1` [CBK286148], with 123.705. Then `Cc1nc(CCNC(=O)N(Cc2cnn(C)c2)C2CC2)nc2c1CCC2` [CBK307650], with 58.7645; and `Cc1cc(C)n2nc(CC(=O)NCCCn3cc(Cl)cn3)nc2n1` [CBK307276], with 60.4092; and `CC1(CNC(=O)c2cc(-c3ccc(F)cc3)no2)COC1` [CBK281757], with 99.1592. Then `O=C(NCC1CCCO1)c1ccc2c(c1)C(=O)N(c1ccccc1-c1ccccc1)C2=O` (stereo not drawn) [CBK262777], with 112.373. As to `COc1cc(S(=O)(=O)NCCc2ccccc2)c(OC)cc1C` [CBK269868], the “% of control remaining” value was 91.1224. Then `Cc1cc(C)c(NC(=O)CSc2nnc(Cc3ccccc3)n2C)c(C)c1` [CBK265990], with 75.783; and `CC(O)CNc1nccnc1-c1cccc(O)c1` (stereo not drawn) [CBK037055], with 118.2.

As for `COc1ccc(-c2ccc(CCC(=O)O)n2-c2ccc(N(C)C)cc2)cc1` [CBK131895], the “% of control remaining” value is given as 87.9907. Then `COc1cc(/C=N/Nc2ccc(C(=O)O)cc2)cc(Br)c1O` [CBK263318], with 73.9465; and `O=C(CCn1cnnn1)N1C[C@H]2CC[C@@H]1CN(Cc1cccnc1)C2` [CBK307029], with 96.9096. Then `Cc1onc(-c2ccccc2)c1CNC(=O)c1cncnc1` [CBK144098], with 94.1844. Then `CCN1CCN(c2ccc(Nc3ccnc4cc5ccccc5cc34)cc2)CC1` [CBK261130], with 64.2337. With `Cc1ccc(C2=CCN(CC(=O)Nc3nccs3)CC2)o1` [CBK283557], the “% of control remaining” value came out at 105.513. Then `N#Cc1c(N)ncnc1-c1ccccc1` [CBK102172], with 107.117; and `O=C(CSc1nnc(-c2ccncc2)n1-c1ccccc1)N/N=C/c1ccccc1O` [CBK262788], with 112.46; and `CC1=NN(c2ccccc2F)C(=O)C1` [CBK067773], with 64.6955. Then `O=C(Nc1nccs1)c1ncoc1-c1cccs1` [CBK283975], with 90.178; and `O=C1CCC(=O)N1CCN1CC(O)CC1c1cc(F)ccc1F` (stereo not drawn) [CBK306390], with 23.5085.

`COc1ccc(Nc2cc(-c3cc4ccccc4o3)ncn2)c(C)c1` [CBK091040]: the “% of control remaining” value was found to be 82.3952.

With `CCOC(=O)CC(=O)N1CCC(c2onc3c2CC(C)CC3)CC1` (stereo not drawn) [CBK285187], the “% of control remaining” value came to 87.2666. Then `O=C(CC1CCCC1)NCCn1nc(-c2ccco2)ccc1=O` [CBK283864], with 99.4534; and `O=C(C1CCC1)N1CCC2(CC1)Nc1cccnc1-n1cccc12` [CBK284505], with 82.4664; and `O=[N+]([O-])c1ccc(/C=N/c2cccc(-c3nc4ccccc4s3)c2)cc1` [CBK293918], with 94.8739.

For `CS(=O)(=O)N1CC2(CCN(CC3CCCCC3)CC2)c2ccccc21` [CBK084018], the “% of control remaining” value worked out at 67.9141. Then `C=CCn1c(COc2ccc(Cl)cc2)nnc1SCC(=O)O` [CBK263171], with 38.0157. Then `Cc1ccc(-c2ccc(CCC(=O)O)n2CC(=O)O)cc1` [CBK286922], with 111.24; and `O=C(Nc1ccc2oc(-c3cccnc3)nc2c1)c1ccc(-c2cccc([N+](=O)[O-])c2)o1` [CBK262945], with 82.3327; and `CC(CN1CCOCC1)OC(=O)c1ccco1` (stereo not drawn) [CBK264606C], with 97.9072. Then `Cc1cn(S(=O)(=O)N(C)C)nc1-c1ccccc1` [CBK005210], with 130.042; and `Cc1ccc(OC(C)C(=O)NNC(=O)c2ccc([N+](=O)[O-])cc2)cc1` (stereo not drawn) [CBK269065], with 83.6559; and `O=C(O)c1ccc(CN2CCOC[C@H]2c2nc(-c3ccc(F)cc3)c[nH]2)cc1` [CBK289304], with 83.6494. For the compound `Cc1cc(C(=O)O)c2[nH]c3c(c2c1)CCCC3` [CBK028885], the “% of control remaining” value is recorded as 83.3016. Then `O=C(CCn1cccn1)Nc1ccc(OC2CCCC2)cc1` [CBK281861], with 98.2046; and `Cc1c(S(=O)(=O)NCCN(C)C)sc2ccc(C(C)C)cc12` [CBK170357], with 76.762.

For the compound `Cc1nnc(CN2CCOc3ccc(Br)cc3C2)o1` [CBK304079], the “% of control remaining” value was found to be 75.2296. Then `COc1ccc(C(=O)Nc2ccc(S(=O)(=O)N3CCN(C)CC3)cc2)cc1` [CBK267622], with 106.747. Then `O=C1Nc2cc(Cl)ccc2C(=O)N2CC[C@H](NS(=O)(=O)c3cccs3)[C@@H]12` [CBK289341], with 94.274. Then `COc1ccc(/C=C(/C#N)C(=O)Nc2cccc(C)c2C)cc1C(=O)O` [CBK262751], with 107.875; and `O=C(CCC(=O)c1ccccc1)NC1CCc2ccccc21` (stereo not drawn) [CBK003351], with 116.393. Turning to `Cc1c(C(=O)N2CCCCC2)sc2nc(C(F)(F)F)nn12` [CBK006455], the “% of control remaining” value is reported as 77.1267. Then `Cc1csc(NC(=O)CN2CCC(c3ccccc3F)CC2)n1` [CBK283569], with 94.9628.

For the compound `CN1CCCC1CNCc1cn(-c2ccccc2)nc1-c1cccnc1` (stereo not drawn) [CBK304490], the “% of control remaining” value is 19.9441. Then `Nc1ncc(-c2ccc(C(=O)N3CCOCC3)cc2)nc1-c1ccc(CCC(=O)O)cc1` [CBK126368], with 86.4871.

As to `Cn1cnc(S(=O)(=O)N2CCC(C(=O)NC(c3ccccn3)c3cccs3)CC2)c1` (stereo not drawn) [CBK060131], the “% of control remaining” value was found to be 84.1282. `COc1ccc(S(=O)(=O)NC(C)C(=O)NCc2ccncc2)cc1C` (stereo not drawn) [CBK269347]: the “% of control remaining” value came to 58.9986.

On to `COc1ccc2c(c1OC)C(=O)N1C2SC(C)(C)C1C(=O)O` (stereo not drawn) [CBK011479], for which the “% of control remaining” value came to 97.854. Take `O=C(CN1C(=O)[C@H]2CCCN2c2ncccc21)NCCc1c[nH]c2ccccc12` [CBK286206]: the “% of control remaining” value is 89.8434.

These data come from paper PMC12040169 (PLOS Biology, 2025).
